# Measured values from the supplement of paper PMC12632987.
# In all, about 1,800 sequences were measured (“median log2 fold change of GCK-ALFA target abundance (FLAG IP / Myc IP barcode read proportion)”: median about 0.14, lowest 2% from about -0.84 on). The list shows a part of the results.
# T1: TRAF2, Q12933
# T1 chain: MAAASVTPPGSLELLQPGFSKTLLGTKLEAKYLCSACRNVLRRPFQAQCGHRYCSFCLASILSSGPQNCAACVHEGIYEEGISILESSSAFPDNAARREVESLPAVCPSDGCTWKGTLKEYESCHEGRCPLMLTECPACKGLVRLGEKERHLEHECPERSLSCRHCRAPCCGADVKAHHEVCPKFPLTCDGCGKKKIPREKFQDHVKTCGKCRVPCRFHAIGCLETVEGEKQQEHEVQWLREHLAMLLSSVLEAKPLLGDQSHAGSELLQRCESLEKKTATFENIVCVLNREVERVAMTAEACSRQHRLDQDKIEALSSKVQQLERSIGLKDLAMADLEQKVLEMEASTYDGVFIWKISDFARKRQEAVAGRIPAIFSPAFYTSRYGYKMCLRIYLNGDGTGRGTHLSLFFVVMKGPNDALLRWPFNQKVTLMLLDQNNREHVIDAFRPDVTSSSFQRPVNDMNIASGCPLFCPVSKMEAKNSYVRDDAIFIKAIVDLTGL
# B1: traf2_out_13_95_1154 (protein)
# chain: SKELAEKIMEIADKMLDKSKEILKELLEIAKKKGKLEEEVQEALYLAETRSINEAIHKLKELAKKYPEFKEELEKAIKELEELKREAGKEVAKLIKEEKE
# B2: traf2_out_11_155_742 (protein)
# chain: EEKKKLLQEMNDKIMELFEKAREEALKIAKEAAEKHPEHKEEIEKKIEETKGFSYRSFILSLIELFKKLGLEEEAKKLEELLEKTQKEANEIVKETEKKL
# B3: traf2_out_16_177_1456 (protein)
# chain: ELDRVMDRLVILSHLRRAALLIVEDNSPEAEEHLARAREEAEAAGDEEGLALADRIEELAAQNTPEALAQLKALAAEAQRRAQELADEAERLIAERAAAE
# B4: traf2_out_20_38_2026 (protein)
# chain: SMEEEEEKKLEELIKVAQEAYDEAEKKIEELKKEGKSIEEIAEIAKEEIERILSEEGLEEEKEELIEEVDLVLDSPDAERLIARILARAVALAHQKRLEK
# B5: traf2_out_17_162_1647 (protein)
# chain: AEVERRLEELERLLRELEERVRELEEKAKNLESLSKSELSDLIVEASEIKRRALEAAEELRELREELPPERYERLLRRLEEVVERANRIAQLFYKEYEKK
# B6: traf2_out_14_17_1291 (protein)
# chain: DIIEKLEEILKTAKELAKKYPELKLELTQLERKAESALVLAEMYEEDPSYKPELIQGLKNLIKLAKEVAEKLKPISAEAVKKLEEMEETAKEILKEVEAE
# B7: traf2_out_11_169_795 (protein)
# chain: EEAEKNRKINEKALELNDKAKEELLEHALELAKKEGLDVEEVKAIYEKNKNKSLSAVASALIKYFKSKGAEEAAKAVEEKYEELKEKINKEMTAFIKELE
# B8: traf2_out_18_3_1900 (protein)
# chain: KEEKLQEVSEKIDEIIDEVTARAREVLDWLAAHHPEVAARVDALRADLEAGAGPFGILEALAELAREAGDEELAEEIEKFLKEKREELQKLVDEYEKLLA
# B9: traf2_out_8_174_2574 (protein)
# chain: SERERLRIVSEVLTEFADILDEAEERLEALKDLPLEELRKESQKILDEALKRIDEIEERRVKEVDEETAELIRRAARSAKQQLRNMVEGTIKRKELREKA
# B10: traf2_out_18_3_1933 (protein)
# chain: SEEERKEISEKIDEIVDEVRARAVEELERARKELPEHRERIDRLRATLEAGGAPFGILDALAELYREAGKEEEAEEIEEFLREKRKKMQELVEKYEELIK
# B11: traf2_out_9_108_2598 (protein)
# chain: MTPEELADEEVEEVIGTVEEKVPEVKFSEEQKENIRRELHRVVRLSEITNRDTIRSYVSSLVLLSARDLPLETLERIADVLIELDPSTKSTVERTLSLLK
# B12: traf2_out_6_166_2478 (protein)
# chain: EEEIRKRIRELVKKFGEYEPEIVIEAFEKLAEERSDERARLARQFATAVRQAQKAGLPVETALSGLVDGLIALGVPLEEILELLEEALKIAEEIAKEKEE
# B13: traf2_out_18_167_1825 (protein)
# chain: EEEKEKRIEELSDRLIALSEVRRAALAALEAARTDPAAAPAALAAVIAALEAVPEFRPDAAALRAAAPEARPALLEEVAERAGREANRLYKERERLKKEL
# B14: traf2_out_14_149_1243 (protein)
# chain: SAMAKKFKAAAELYEKVAEALKEVIKLLKAGKVEEAKKLLKETIKELEEEGKKAGITISAIFELEHILELLDTDVEKAKKAAEEALKRAKSAADAFRSLA
# B15: traf2_out_11_155_685 (protein)
# chain: EEKQKINNELVDKISEIADKAKAEARAIAAATAAAHPEAAAALAATLEASAGFGLSSFLGRLAATFRALGLADAAAQVEALRAQAQKEMNAAVKEAEEKL
# B16: traf2_out_14_154_1269 (protein)
# chain: DALWAELEYHSAWRRFYDSVVEAMKTLSREETLAHLRATTDLVVARVPEHAAEIRARAARIEAALAGSEEERAALLAELEAEAAAEAKKARAAYEKILAE
# B17: traf2_out_15_151_1301 (protein)
# chain: SVEEELAKAEEEMKKQLERTLKEMKEVAEKEKDPELKAKLQEVIEALEAVKDKDIVTISLAIRAARHVLEAYRALTEEGDEERAAEHLALADKLLAELKA
# B18: traf2_out_13_95_1206 (protein)
# chain: EEEKTKKLREITNKIADELIDFVEEKADEIEEKTGIEEYRDDILRTLRRYGVRAAVALIREYAKKDPEHAEVFEKAAEEAEKKIREAGKKAAEEMKKIEE
# B19: traf2_out_11_155_760 (protein)
# chain: STRIALANAINDAAMEIADKIDAFIEEVIAEVEKEDPEVAKEIKAALEKHRDASARSKAKIVADVLKKHGYEEKAKRVEEFLEEAQKELNKRVKEIEESA
# B20: traf2_out_18_3_1932 (protein)
# chain: TEEERKEISDKIDEIVDEVRAYAERELARAREELPEHAARIDALEATLRAGGAPFGVLDALAELYREAGLEERAKEIEEFLRKKRKEMQKLVEEYEELIK
# B21: traf2_out_20_3_2138 (protein)
# chain: EELEKKLQEELDKAIALLKQAAALADAATAAQLDALIATLKASKELSYEDRLVTLSEIRRQVLALAEAARAAGKAELAALLEEAADALNKAMNLVMKIIE
# B22: traf2_out_17_162_1523 (protein)
# chain: SPLEERLAALEARLEALEKRLKELKEKLKNLKNMSKEELTDLLVEASEARREALELAEELRELKPEIGEERAGALIERAEAIAEELQKIANKIYKELEKK
# B23: traf2_out_11_169_772 (protein)
# chain: EEAEKNRKINDKALELNDEAKKKLEEKALALAKEAGLDVEEIKKIFEENKNKSLSAVASALIEYFLSKGKEEEAKKILEFYEELKDEINKESSAFIKELE
# B24: traf2_out_14_17_1290 (protein)
# chain: KVLEILKEIIKRAEELLKEHPELALELNQLLRKAESTLVLAEMYEEDPSYKPLLIESLRQLAKLAEELAKKLEKKSKEGAKIVEEIRRKAEEAREIVEKE
# B25: traf2_out_11_155_735 (protein)
# chain: EEKQKLIQEMNDKIMELFEEARRRALEIARRAAERHPEHREEIEAAIEESKGFSYRSFILEMIRLFRELGLEEEAEELERLLEETQRKASKIVIETEKKL
# B26: traf2_out_6_156_2399 (protein)
# chain: TVEEILAETLKKIEELIKKLAKASEEKKIKYINEIAGTVYRGLQRLREAGASVEEIEAFGEKVLKFTEEKLKEEGIDEDTKNLILASLSAVIRVAIEAAK
# B27: traf2_out_11_155_698 (protein)
# chain: EKERELNNELVDKMMEIEDEAKAELEAIAAEAAAAHPEHAARIAALLAESRRFSATTFGGRMAALFRELGLEEYAARVEALLEEAQKKKNEVYKEIEKKR
# B28: traf2_out_17_178_1693 (protein)
# chain: SKEALRAEISALTDRLIDHTDRYGTRLLERARAEGVLSPEELAALEAALASGSNRTFLATARELLPRSAASPETLALLAEFEAEYRRLAKEIAEAYKKYE
# B29: traf2_out_11_169_811 (protein)
# chain: EEKEKNRKINDFALELNDKAKEELLEHAKALAKEAGLDVEEVEAIFEKNKNKSLSAVAAALIDYFRSKGKEEAAEAVLKKYEELKDKINKEVTKKIKELE
# Molecular target: T1, TRAF2, Q12933
# Test: median log2 fold change of GCK-ALFA target abundance (FLAG IP / Myc IP barcode read proportion) (log2 ratio); each designed protein is fused to an ALFA-tag nanobody in HEK293 cells to bring the named protein to FLAG-tagged glucokinase (GCK); Myc marks an untargeted standard; higher = target protein stabilised (more abundant)
# Details: target protein: 3xFLAG-MCP-GCK-ALFA reporter; HEK293 landing pad (RPLP)
# Summary of the method: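 Binders fused to an ALFA nanobody were recombined as a library into HEK293 landing-pad cells, which were induced with 2 μg mL^−1 doxycycline and then transfected to express a FLAG-tagged target and a Myc-tagged standard. After 48 h, circular RNA barcodes recovered by anti-FLAG and anti-Myc immunoprecipitation of lysates were reverse transcribed, amplified and sequenced. Each binder's target abundance is the median log2 ratio of FLAG to Myc barcode read proportions, from barcodes present at ≥10^−7 in both replicates, binders carrying ≥3 barcodes per replicate, a 10^−6 pseudocount and pooled replicates.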
row,Binder,median log2 fold change
1,B1,-0.148
2,B2,0.08
3,B3,-0.216
4,B4,-0.0149
5,B5,0.242
6,B6,0.128
7,B7,0.128
8,B8,0.0634
9,B9,-0.187
10,B10,0.136
11,B11,0.0238
12,B12,0.332
13,B13,0.35
14,B14,-0.113
15,B15,0.177
16,B16,0.27
17,B17,0.136
18,B18,-0.148
19,B19,0.182
20,B20,0.138
21,B21,-0.268
22,B22,0.633
23,B23,0.396
24,B24,0.118
25,B25,-0.138
26,B26,0.209
27,B27,0.117
28,B28,0.291
29,B29,0.311
